PubChem BioAssay AID624417 (National Center for Advancing Translational Sciences (NCATS), 2012)
About 6,400 (1.6%) of roughly 410,000 compounds were called active. Inconclusive results, whose numbers are uncertain, are shown with a selection of clear calls. The call rests on the fitted dose curve; in most records, active means well fitted inhibition curve with a large enough effect; inconclusive means small, poorly fitted or top-dose-only effect; inactive means no such curve, though single readings can be large or run the other way. Potencies of inconclusive entries are left out as doubtful fits.

molecular target: Glucagon-like peptide 1 receptor (Homo sapiens) (UniProt P43220); assay: qHTS of GLP-1 Receptor Inverse Agonists (Inhibition Mode); conditions: HEK293 GLP-1R CRE-luciferase, luminescence, 24 h, GLP-1R form is constitutively active; series mostly up to 38.3 µM; further: nearly all actives have a fitted effect of over 55% in size
How it was run: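 HEK293 cells stably co-expressing a cAMP-responsive luciferase reporter and constitutively active GLP-1R were seeded, incubated 12 h, then exposed to compounds for 24 h at 37 C. Luminescence was read 12 min after detection reagent; inverse agonists lower signal.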
Potency means the concentration at half of the fitted maximal effect; tags describe the fitted curve by direction and shape.

Chain of UniProt P43220 (P43220 whole entry, looked up): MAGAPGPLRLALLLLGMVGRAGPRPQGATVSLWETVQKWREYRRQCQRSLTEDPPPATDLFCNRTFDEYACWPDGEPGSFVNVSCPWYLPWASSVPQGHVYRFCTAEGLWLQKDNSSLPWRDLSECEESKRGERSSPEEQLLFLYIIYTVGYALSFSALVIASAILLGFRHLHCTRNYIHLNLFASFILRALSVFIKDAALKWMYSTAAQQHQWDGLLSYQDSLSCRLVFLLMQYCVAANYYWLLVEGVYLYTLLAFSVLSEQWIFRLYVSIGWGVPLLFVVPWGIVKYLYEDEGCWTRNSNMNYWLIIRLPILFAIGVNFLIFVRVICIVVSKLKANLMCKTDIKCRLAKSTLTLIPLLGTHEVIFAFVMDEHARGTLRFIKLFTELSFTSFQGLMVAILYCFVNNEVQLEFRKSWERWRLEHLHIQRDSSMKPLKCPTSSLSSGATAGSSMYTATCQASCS

Structure (SMILES)	Potency
COc1ccc(C(=O)Nc2ccc(Cl)c(S(=O)(=O)N3CCOCC3)c2)cc1	inconclusive [inhibitor, partial curve, poor fit]
O=C(CCSCc1ccccc1Cl)NC1CCCCC1	inconclusive [inhibitor, single point]
CCn1c(C(=O)NCc2ccc(OC)cc2)cc2sc(Cl)cc21	inconclusive [inhibitor, partial curve, poor fit]
Cn1c(=O)oc2ccccc2c1=O	inactive
CCN(CC(=O)Nc1cc(Cl)ccc1C)C(=O)CN1C(=O)NC2(CCCC2)C1=O	inactive
CCOc1ccc(N=c2scc(-c3ccc(OC)cc3)n2CCO)cc1	inconclusive [inhibitor, full curve, poor fit]
O=C(CCCn1c(=S)[nH]c2cc3c(cc2c1=O)OCO3)N1CCN(c2ccc(F)cc2)CC1	inconclusive [inhibitor, single point]
O=C(Cc1ccc(Br)cc1)c1ccc(O)cc1O	inconclusive [inhibitor, single point]
COc1ccc(CCNC(=O)Cn2c(=O)cnc3ccccc32)cc1	inconclusive [inhibitor, single point]
Cc1c(C(=O)NCc2ccc(F)cc2)sc2nc(-c3ccccc3)cn12	inconclusive [inhibitor, partial curve]
COc1ccc(-n2nc(C(=O)NCc3ccco3)c3c4ccccc4n(C)c3c2=O)cc1	inactive
CCOc1cc(-c2ccc(OC(=O)c3ccc(Cl)cc3)c(OC)c2)cc(=O)c2c(C)oc(C)c12	inactive
COC(=O)c1c(-c2ccc(Cl)cc2)noc1N1CCN(c2cccc(OC)c2)CC1	inactive
CCOC(=O)c1ccccc1-c1csc(NS(=O)(=O)c2ccc(Cl)cc2)n1	inconclusive [inhibitor, partial curve, poor fit]
COc1ccc(CCNC(=O)c2ccc(Cn3c(=O)c4ccccc4n(Cc4ccccc4Cl)c3=O)cc2)cc1OC	inactive
CCOC(=O)c1ccc(NC(=O)CNC(=O)c2ccccc2)cc1	inconclusive [inhibitor, single point]
COc1ccc(NC(=O)CSc2ccc3ccccc3c2)cc1S(=O)(=O)N1CCCCC1	inconclusive [inhibitor, partial curve]
O=C(Nc1ccc(F)cc1)C(c1cccc(F)c1)N1CCN(c2ccncc2)CC1 (configuration not stated)	inactive
COc1cc(-c2nc3cccc(C)n3c2Nc2ccc3c(c2)OCCO3)ccc1O	inactive
COc1ccccc1CNC(=O)c1cccc(NC(=O)N2CCSc3ncccc32)c1	inactive
CC(=O)c1ccc(N2CCN(c3ncnc4onc(-c5ccc(Cl)cc5)c34)CC2)cc1	inconclusive [inhibitor, single point]
O=C(N/N=C/c1cc(Br)ccc1O)c1cccc(N2CCCC2=O)c1	inconclusive [inhibitor, full curve, poor fit]
O=C(c1cccc(NS(=O)(=O)c2ccc(F)c(F)c2)c1)N1CCN(Cc2ccccc2)CC1	inconclusive [inhibitor, partial curve, poor fit]

Structure (SMILES)	Potency
O=C(Nc1cccc(F)c1)c1cccnc1NCCc1ccccc1	active: 10 µM
CCn1c(SCc2cccc(OC)c2)nc2ccccc2c1=O	inconclusive [inhibitor, partial curve, poor fit]
Cc1cc(C)c(S(=O)(=O)N2CCN(c3ccccn3)CC2)c(C)c1	inconclusive [inhibitor, single point]
C/C(=N\N1C(=O)c2ccccc2NC1c1ccco1)c1ccccc1O (configuration not stated)	inconclusive [inhibitor, full curve]
O=C(c1ccc2ccccc2c1)N1CCc2ccccc21	inconclusive [inhibitor, partial curve, poor fit]
c1csc(-c2nc3ccccn3c2Nc2ccc3c(c2)OCCO3)c1	inconclusive [inhibitor, single point]
Cc1sc2ncn(C(C)C(=O)OC3CCCCC3)c(=O)c2c1C (configuration not stated)	inconclusive [inhibitor, single point]
CCOc1ccc(-c2nn3c(-c4ccc(F)cc4)nnc3s2)cc1	inactive
CCN(CC)CCCNC(=S)N(Cc1cccs1)Cc1cc2cc3c(cc2[nH]c1=O)OCCO3	inconclusive [inhibitor, single point]
COc1ccc(/C=C2\Oc3ccccc3C2=O)cc1	inconclusive [inhibitor, partial curve]
C[C@H](OC(=O)NCc1ccc(C(F)(F)F)cc1)[C@@H]1O[C@@]2(C)CCC[C@@H]1O2	inconclusive [inhibitor, single point]
COC(=O)[C@@]12C[C@@H](CC(=O)NCc3cccc4ccccc34)C(=O)N(Cc3ccccc3)C1=CCC(C)(C)C2	inconclusive [inhibitor, single point]
Cc1ccc(C(=O)CCC(=O)NC2CCCC(C)C2C)cc1 (configuration not stated)	inconclusive [inhibitor, single point]
COc1ccc(S(=O)(=O)NCCS(=O)(=O)N2CCN(c3ccccc3F)CC2)cc1	inconclusive [inhibitor, single point]
O=C(Cc1ccsc1-c1ccccc1)NO	inconclusive [inhibitor, single point]
Cc1cccc(Nc2nc(N)nc(CCl)n2)c1	inconclusive [inhibitor, single point]
Cc1cc(C)n(-c2nc3ccccc3c(=O)n2OCC(N)=O)n1	inactive
CC(C)c1ccc(OCC(=O)NNC(=S)NC(=O)c2ccco2)c(Br)c1	inconclusive [inhibitor, partial curve, poor fit]
CCN(CC)C1CCN(C(=O)c2cc(COc3ccc(F)cc3Cl)on2)C1 (configuration not stated)	inconclusive [inhibitor, partial curve, poor fit]
CCCn1c(SC(C)C(=O)NCC2CCCO2)nc2sc3c(c2c1=O)CCC3 (configuration not stated)	inactive
COc1ccc(C(=O)NNC(=S)NC(=O)c2ccccc2)cc1	inconclusive [inhibitor, single point]
O=C1CC(N2CCN(Cc3ccccc3)CC2)C(=O)N1 (configuration not stated)	inactive
Cc1ccc(-c2nc3ccccc3[nH]2)cc1N	inconclusive [inhibitor, single point]

Structure (SMILES)	Potency
CC(C)NC(=O)CN1CCN(c2ncccn2)CC1	inactive
CCN(C[C@H]1N[C@@](Cc2ccccc2)(C(=O)OC)[C@H]2C(=O)N(Cc3ccccc3)C(=O)[C@@H]12)C(=O)Nc1ccc(F)cc1	inconclusive [inhibitor, single point]
Cc1ccc(-n2ncc3c(NCCCn4ccnc4)ncnc32)cc1	inconclusive [inhibitor, partial curve, poor fit]
CC(C)=CC(=O)Nc1nnc(C(C)C)s1	inconclusive [inhibitor, full curve]
O=C1[C@H]2[C@@H](c3ccc(Cl)cc3)N3C(=O)N(c4cccc(Cl)c4)C(=O)[C@@]3(Cc3ccc(Cl)cc3)[C@H]2C(=O)N1C1CCCCC1	active: 3.98 µM
COc1cc2c(cc1NC(=O)CSc1ccccc1)oc1ccccc12	inconclusive [inhibitor, single point]
O=C(C1CCN(C2CCN(Cc3ccc4c(c3)CCO4)CC2)CC1)N1CCOCC1	inconclusive [inhibitor, full curve, poor fit]
OC(COC(c1ccccc1)c1ccccc1)CN1CCN(c2cccc(Cl)c2)CC1 (configuration not stated)	inconclusive [inhibitor, partial curve, poor fit]
CC(C)(C)c1ccc(C(=O)N/N=C/c2ccccn2)cc1	inconclusive [inhibitor, partial curve, poor fit]
CCCCCn1c(=O)[nH]c2cc(C(=O)N3CCN(c4ccccc4F)CC3)ccc2c1=O	inconclusive [inhibitor, partial curve, poor fit]
CCOC(=O)c1cccc(Nc2nc(C(=O)OCC)nc3ccccc23)c1	inactive
COc1ccc(Cl)cc1-c1nc(-c2ccc(NC(=O)c3ccncc3)cc2)no1	inactive
CCc1ccc(CN(C)C(=O)c2cc(COc3c(F)cccc3F)on2)cc1	inconclusive [inhibitor, single point]
CC(=O)Nc1nnc(CSCc2ccccc2F)s1	inactive
COCCN(C(=O)Cc1cccs1)C(C(=O)NCc1ccc(OC)cc1)c1ccc(C)cc1 (configuration not stated)	inconclusive [inhibitor, partial curve, poor fit]
CCOc1ccc(CN(C)C(C)C(=O)Nc2ccc([N+](=O)[O-])cc2Cl)cc1OC (configuration not stated)	inconclusive [inhibitor, single point]
O=C(OCC(=O)N1CCN(c2ccccc2)CC1)c1cc(Br)ccc1Cl	inconclusive [inhibitor, single point]
CC(CC(=O)Nc1cc(C(F)(F)F)ccc1Cl)c1ccccc1 (configuration not stated)	inconclusive [inhibitor, single point]
Cc1cccc2cc(C#N)c(NCCNS(=O)(=O)c3ccccc3)nc12	inactive
CC(=O)Oc1ccc(N2C(=O)C3C4C=CC(CO)(O4)C3C2=O)cc1 (configuration not stated)	inactive
COc1ccc(S(=O)(=O)CCC(=O)NCc2ccc(C)o2)cc1	inactive
